Here are results for 44 molecules from article PMC4336329 (PLoS ONE, 2015).

Among all 310,000 compounds or so, about 2,200 (0.71%) showed an effect of 50% or more. Effects have a minus sign here. This is one part of the list. Where a SMILES comes first, the peptide text is derived from it. [ ]: non-standard residue; d: D form. pGlu = O=C1CC[CH](C(=O)O)N1

Sequence of human ether-à-go-go-related gene (hERG) potassium channel (Q12809 whole entry, looked up): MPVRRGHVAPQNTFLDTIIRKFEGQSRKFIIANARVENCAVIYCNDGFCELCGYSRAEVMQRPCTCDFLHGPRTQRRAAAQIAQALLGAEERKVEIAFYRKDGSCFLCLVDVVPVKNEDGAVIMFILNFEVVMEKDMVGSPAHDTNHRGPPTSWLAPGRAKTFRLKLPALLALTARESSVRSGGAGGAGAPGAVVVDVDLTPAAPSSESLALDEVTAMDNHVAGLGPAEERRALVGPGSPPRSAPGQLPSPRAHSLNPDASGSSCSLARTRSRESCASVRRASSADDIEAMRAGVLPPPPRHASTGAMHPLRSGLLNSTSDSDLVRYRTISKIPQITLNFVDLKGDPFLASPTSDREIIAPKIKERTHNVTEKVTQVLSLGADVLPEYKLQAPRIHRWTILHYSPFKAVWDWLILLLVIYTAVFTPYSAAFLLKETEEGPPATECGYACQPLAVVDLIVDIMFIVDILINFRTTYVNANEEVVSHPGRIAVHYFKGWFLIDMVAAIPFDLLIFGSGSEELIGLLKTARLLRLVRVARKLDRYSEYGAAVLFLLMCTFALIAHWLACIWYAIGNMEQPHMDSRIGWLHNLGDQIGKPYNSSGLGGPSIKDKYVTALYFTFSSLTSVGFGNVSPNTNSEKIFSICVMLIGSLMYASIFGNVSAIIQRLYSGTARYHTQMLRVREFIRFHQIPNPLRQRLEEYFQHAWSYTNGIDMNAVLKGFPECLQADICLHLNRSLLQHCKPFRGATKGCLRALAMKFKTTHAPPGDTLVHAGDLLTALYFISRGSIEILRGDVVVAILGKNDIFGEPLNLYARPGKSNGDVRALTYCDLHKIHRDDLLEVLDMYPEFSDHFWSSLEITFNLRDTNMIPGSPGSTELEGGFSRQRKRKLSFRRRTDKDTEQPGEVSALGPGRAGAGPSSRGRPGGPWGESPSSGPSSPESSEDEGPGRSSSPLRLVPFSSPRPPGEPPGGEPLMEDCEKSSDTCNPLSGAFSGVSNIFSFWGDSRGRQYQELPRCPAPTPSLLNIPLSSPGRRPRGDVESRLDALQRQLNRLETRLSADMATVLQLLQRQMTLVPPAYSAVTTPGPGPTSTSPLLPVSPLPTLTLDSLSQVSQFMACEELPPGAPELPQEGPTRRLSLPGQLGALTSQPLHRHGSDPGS

The assay concerns the target human ether-à-go-go-related gene (hERG) potassium channel (human, UniProt Q12809). In words: primary screen, population patch clamp on CHO cells stably expressing hERG.
As to `O=C(O)C1C2CCC(O2)C1C(=O)Nc1ccc(OC(F)F)cc1` (centres unmarked), the “hERG current change (%, negative = inhibition) at 1uM” value is 12%.
With `COc1ccc(-n2c(=S)[nH]c3c(oc4ccccc43)c2=O)cc1` the figure was 12%; with `O=C(Nc1ccccc1)C1CCN(C(=O)c2ccc(Br)cc2)CC1`, -15.9%; with `CC1=C(C#N)C(c2ccc3ncccc3c2)C(C#N)=C(C)N1`, 8.61%.
With `CCOc1ccc(C(=O)N2CCN=C2SC)cc1OCC` the figure was 8.17%.
Take `O=C(NCc1ccccc1)C1CCCN(S(=O)(=O)c2ccc(F)cc2)C1` (centres unmarked): the “hERG current change (%, negative = inhibition) at 1uM” value is -0.188%.
With `COc1ccc2c(c1)CCc1c(C(=O)N3CCCC3)noc1-2`, the “hERG current change (%, negative = inhibition) at 1uM” value is listed as -5.62%.
The value for `CCN(CC(=O)Nc1ccccc1C(F)(F)F)C(=O)c1ccccc1Sc1ccccc1C#N` was 7.19%.
Turning to `CN(C1CCCCC1)S(=O)(=O)c1cc2c(cc1Cl)NC(=O)CO2`, the “hERG current change (%, negative = inhibition) at 1uM” value worked out at 5.19%.
In the case of `CC(C)CCn1c(=O)c2ccccc2n2c(CCC(=O)NC3CCN(Cc4ccccc4)CC3)nnc12`, the “hERG current change (%, negative = inhibition) at 1uM” value is -5.83%.
The value for `Cc1ccc(C(=O)Cn2nnc3ccccc32)cc1[N+](=O)[O-]` was 14.9%; that for `Cc1cc(N2C(=O)C3CCCN3C2c2sccc2C)no1` (centres unmarked) was 8.22%; that for `COC(=O)C(Cc1cnc[nH]1)NC(=O)C1CCC(=O)N1` (centres unmarked) ([pGlu]-His-OMe; configuration not given here) was 29%.
As for `CCOC(=O)c1cnn(-c2ccccc2)c1-n1cccc1C(=O)C(=O)N(C)C`, the “hERG current change (%, negative = inhibition) at 1uM” value is listed as -1.62%.
With `CCC(C)(C)NC(=O)COc1ccc(C(=O)c2ccccc2)cc1` the figure was 8.09%; with `COc1cc(C(=O)NCCCCCC(=O)O)cc(OC)c1OC`, -0.515%; with `N#CCCN(C(=O)COC(=O)c1cccc(S(=O)(=O)N2CCCC2)c1)c1ccc(F)cc1`, -11.1%.
Regarding `CC1(C)Cc2c(sc3ncn4nc(CCC(=O)O)c(=O)nc4c23)CO1`, the “hERG current change (%, negative = inhibition) at 1uM” value turned out to be 12.4%.
For `CC1(OC(=O)C2CCCC2)C(=O)C=C2C=C(c3ccsc3)N(CCCCO)C=C2C1=O` (centres unmarked), the “hERG current change (%, negative = inhibition) at 1uM” value is on record as 7.62%.
Regarding `Cn1nc(C(=O)NC(C)(C)C)c2ccccc21`, the “hERG current change (%, negative = inhibition) at 1uM” value is given as -1.53%.
Consider `CCCC[C@@H]1CNC(=S)N1CCc1cccc(F)c1`, for which the “hERG current change (%, negative = inhibition) at 1uM” value is on record as 9.74%.
With `COCCNC(=O)CNC(=O)c1nn(-c2ccc(OC)c(Cl)c2)c(=O)c2ccccc12` the figure was 12.8%; with `O=P(Nc1ccccc1)(Nc1ccccc1)Oc1ccc(Cl)cc1`, -4.28%; with `Cc1cc(C(F)F)n2nc(C(=O)Nc3ccc(S(=O)(=O)N4CCCC4)cc3)nc2n1`, 7.14%.
The value for `COc1ccc(-c2nn(-c3ccccc3)cc2/C=N/NS(=O)(=O)c2ccccc2)cc1` was 7.3%; that for `CCCCNC(=O)c1cc(-c2ccc3c(c2)OCO3)on1` was 11%.
With `CC(NC(=O)CCC(=O)NC(C)C1COc2ccccc2O1)C1COc2ccccc2O1` (centres unmarked) the figure was 2.02%; with `COc1ccccc1N1CC(C(=O)Nc2cccc(C(=O)O)c2)CC1=O` (centres unmarked), 8.66%; with `COc1cccc(NC(=O)COC(=O)c2ccccc2C(=O)N2CCN(c3ccccc3)CC2)c1`, 13.1%.
Turning to `Br.COc1ccccc1NS(=O)(=O)c1cc(N2Cc3ccccc3C2=N)ccc1N1CCOCC1`, the “hERG current change (%, negative = inhibition) at 1uM” value was -61.2%.
The value for `COc1ccc(NC(=O)c2cccc(S(=O)(=O)N3CCCC3)c2)cc1OC` was 2.14%.
The value for `CSCCC(C(=O)NC1=NCCS1)N1C(=O)c2ccccc2C1=O` (centres unmarked) was -6.08%; that for `O=C(CCN1C(=O)c2ccccc2C1=O)Nc1ccccn1` was 7.12%; that for `CCc1cc(=O)oc2c3c(cc(OCC(=O)NCc4ccncc4)c12)OC(C)(C)CC3` was -10.9%.
The value for `O=C(c1cnn2ccccc12)N1CCc2ccccc21` was 7.95%.
In the case of `O=C(NCc1nnc(SCC(=O)N2CCCc3ccccc32)o1)c1ccco1`, the “hERG current change (%, negative = inhibition) at 1uM” value is 15.2%.
The value for `CC(=O)c1ccccc1C(=O)N1CCCC(C(=O)c2ccc(C(F)(F)F)cc2)C1` (centres unmarked) was 5.28%; that for `NNC(=O)CCc1nc2ccccc2[nH]1` was 11.1%.
The value for `O=C1C(=O)N(Cc2cccnc2)C(c2ccccn2)/C1=C(/O)c1ccc(Br)cc1` (centres unmarked) was 13.3%; that for `O=C(COC(=O)CCC(=O)c1ccc(F)cc1)Nc1ccccc1` was 3.6%.
For the molecule `CC1(C)N=C(SCC(=O)Nc2ccc(Cl)cc2)C(c2ccccc2)=N1`, the “hERG current change (%, negative = inhibition) at 1uM” value was -1.06%.
With `Cc1cc(C)n2nc(C(F)(F)F)c(-c3ccccc3)c2n1` the figure was 2.1%; with `CCN1CCN(Cc2nnc(-c3ccc(C)cc3)o2)CC1`, 9.79%; with `O=C(CN1CCOCC1)Nc1ccccc1`, 7.23%.
